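Tested at 5 concentrations; 48 h exposure; 96-well plates; endpoints linearly interpolated, else capped at highest concentration. TGI: concentration producing complete growth inhibition.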
Key:
Experiment in all cases: NCI anticancer screen, dose series, 48 h
786-0 renal = system: 786-0 renal
UACC-257 melanoma = system: UACC-257 melanoma
NCI/ADR-RES ovarian = system: NCI/ADR-RES ovarian
SR leukemia = system: SR leukemia
RXF 393 renal = system: RXF 393 renal
SK-MEL-2 melanoma = system: SK-MEL-2 melanoma
HOP-92 NSCLC = system: HOP-92 NSCLC
ACHN renal = system: ACHN renal
SK-OV-3 ovarian = system: SK-OV-3 ovarian
HS 578T breast = system: HS 578T breast
CCRF-CEM leukemia = system: CCRF-CEM leukemia
K-562 leukemia = system: K-562 leukemia
KM12 colon = system: KM12 colon
MDA-N = system: MDA-N
UO-31 renal = system: UO-31 renal
NCI-H522 lung = system: NCI-H522 lung
CAKI-1 renal = system: CAKI-1 renal
EKVX NSCLC = system: EKVX NSCLC
LOX IMVI melanoma = system: LOX IMVI melanoma
RPMI-8226 leukemia = system: RPMI-8226 leukemia
IGROV1 ovarian = system: IGROV1 ovarian
SN12C renal = system: SN12C renal
OVCAR-4 ovarian = system: OVCAR-4 ovarian
OVCAR-5 ovarian = system: OVCAR-5 ovarian
A498 renal = system: A498 renal
COLO 205 colon = system: COLO 205 colon
SF-295 CNS = system: SF-295 CNS
OVCAR-8 ovarian = system: OVCAR-8 ovarian
MDA-MB-435 = system: MDA-MB-435
M14 melanoma = system: M14 melanoma
PC-3 prostate = system: PC-3 prostate
UACC-62 melanoma = system: UACC-62 melanoma
SK-MEL-5 melanoma = system: SK-MEL-5 melanoma
T-47D breast = system: T-47D breast
MOLT-4 leukemia = system: MOLT-4 leukemia
NCI-H23 lung = system: NCI-H23 lung
SNB-75 CNS = system: SNB-75 CNS
BT-549 breast = system: BT-549 breast
HCC-2998 colon = system: HCC-2998 colon
HOP-62 NSCLC = system: HOP-62 NSCLC
HCT-15 colon = system: HCT-15 colon
A549 NSCLC = system: A549 NSCLC
SNB-19 CNS = system: SNB-19 CNS
U251 CNS = system: U251 CNS
MDA-MB-231 breast = system: MDA-MB-231 breast
TK-10 renal = system: TK-10 renal
HCT-116 colon = system: HCT-116 colon
MCF7 breast = system: MCF7 breast
DU-145 prostate = system: DU-145 prostate
OVCAR-3 ovarian = system: OVCAR-3 ovarian
SK-MEL-28 melanoma = system: SK-MEL-28 melanoma
NCI-H460 lung = system: NCI-H460 lung
SF-268 CNS = system: SF-268 CNS
SW-620 colon = system: SW-620 colon
MALME-3M melanoma = system: MALME-3M melanoma

Measured: TGI

O=C1Cc2c([nH]c3ccc(C(F)(F)F)cc23)-c2cc(Br)ccc2N1
> 100 µM: all assays above
